{"source": "PubChem BioAssay AID202", "about": "(DTP/NCI, 2004)", "system": "HT29 xenograft, nude mice, s.c., tumor weight T/C%", "assay": "NCI In Vivo Anticancer Drug Screen. Data for tumor model HT29;CX-1 Human Adenocarcinoma (MER+) (subcutaneous) in NU/NU Swiss (nude) mice", "details": "endpoint: optimum tumor weight change, higher = larger tumour", "method": "The antitumor activity of compounds was measured in mice bearing transplantable tumors. Survival or tumor size were measured and the results are expressed as the measurement made in the treated group (T) divided by the measurement made in the vehicle treated control group (C). The tumor model used in this assay is HT29;CX-1 Human Adenocarcinoma (MER+) (subcutaneous) in NU/NU Swiss (nude) mice", "note": "Not every entry of the source has a single result; some have several. The list is limited to them. The source may hold further records. Values given together differ for a reason that is not stated; they may come from other doses, times, organisms or constructs than stated."}
{"molecule": "C[C@]12CC[C@@H]3c4ccc(OC(=O)Cc5ccc(N(CCCl)CCCl)cc5)cc4CC[C@H]3[C@@H]1CC[C@@H]2OC(=O)Cc1ccc(N(CCCl)CCCl)cc1", "values": [{"measurement": "T/C", "setting": "dose: 300.0 mg/kg/injection, schedule: Q04DX003 (ip), vehicle: saline with Tween-80", "value": "57 % of control and 109 % of control"}]}
{"molecule": "CC(=O)OCC1OC(n2ccc(N)nc2=O)C(OC(C)=O)C1OC(C)=O", "note": "(centres undefined)", "values": [{"measurement": "T/C", "setting": "dose: 400.0 mg/kg/injection, schedule: Q04DX003 (ip), vehicle: suspension in saline", "value": "39 % of control and 73 % of control"}, {"measurement": "T/C", "setting": "dose: 800.0 mg/kg/injection, schedule: Q04DX003 (ip), vehicle: suspension in saline", "value": "24 % of control and 104 % of control"}]}
{"molecule": "O=C(O)C1(C(=O)O)CCC1.[NH2-].[NH2-].[Pt+2]", "values": [{"measurement": "T/C", "setting": "dose: 12.5 mg/kg/injection, schedule: Q04DX003 (ip), vehicle: dextrose", "value": "40 % of control and 101 % of control"}]}
{"molecule": "CC(=O)OCC(=O)[C@@]12OC(C)(C)O[C@@H]1C[C@H]1[C@@H]3CC(C=O)=C4C=C(OCCCl)CC[C@]4(C)[C@@]3(F)[C@@H](O)C[C@@]12C", "values": [{"measurement": "T/C", "setting": "dose: 50.0 mg/kg/injection, schedule: Q04DX003 (ip), vehicle: Klucel (hydroxypropylcellulose) (HPC)", "value": "31 % of control and 78 % of control"}]}
{"molecule": "CN(CO)c1nc(N(C)CO)nc(N(C)CO)n1", "values": [{"measurement": "T/C", "setting": "dose: 100.0 mg/kg/injection, schedule: Q01DX005 (ip), vehicle: Klucel (hydroxypropylcellulose) (HPC)", "value": "62 % of control and 91 % of control"}, {"measurement": "T/C", "setting": "dose: 200.0 mg/kg/injection, schedule: Q04DX005 (ip), vehicle: Klucel (hydroxypropylcellulose) (HPC)", "value": "56 % of control and 101 % of control"}]}
{"molecule": "N=c1ccn2c(n1)OC1C(O)C(CO)OC12", "note": "(centres undefined)", "values": [{"measurement": "T/C", "setting": "dose: 400.0 mg/kg/injection, schedule: Q04DX003 (ip), vehicle: saline", "value": "35 % of control and 85 % of control"}]}
{"molecule": "CN(C)c1nc(N(C)C)nc(N(C)C)n1", "values": [{"measurement": "T/C", "setting": "dose: 60.0 mg/kg/injection, schedule: Q01DX005 (ip), vehicle: Klucel (hydroxypropylcellulose) (HPC)", "value": "55 % of control and 83 % of control"}]}
